The target in experiment [1] is T1, Flag-UBXN7 (wild-type), expressed in A31N-ts20 mouse embryo fibroblasts (human) (UniProt O94888).
T1 sequence: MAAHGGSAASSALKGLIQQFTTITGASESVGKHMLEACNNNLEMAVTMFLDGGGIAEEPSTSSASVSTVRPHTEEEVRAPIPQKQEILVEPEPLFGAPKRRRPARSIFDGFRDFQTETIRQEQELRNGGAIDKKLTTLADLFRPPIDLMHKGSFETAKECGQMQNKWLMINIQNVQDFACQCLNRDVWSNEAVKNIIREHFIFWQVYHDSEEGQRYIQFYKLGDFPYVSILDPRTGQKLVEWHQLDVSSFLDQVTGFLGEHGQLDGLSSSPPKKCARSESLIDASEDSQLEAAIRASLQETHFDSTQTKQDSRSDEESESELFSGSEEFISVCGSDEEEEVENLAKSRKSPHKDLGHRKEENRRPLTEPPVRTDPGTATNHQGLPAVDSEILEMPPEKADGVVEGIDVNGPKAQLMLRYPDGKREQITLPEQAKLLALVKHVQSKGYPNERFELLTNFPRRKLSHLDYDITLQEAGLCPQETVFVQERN
Description: co-IP; Flag-UBXN7 immunoprecipitated from A31N-ts20 cells (thermo-sensitive for the ubiquitin-E1) grown at 35°C or at the restrictive temperature (39°C) for 20 hours.

By UniProt entry, the sequences of proteins in these tests, tags left out. Where a name states a change or a piece, a line headed by the entry shows the natural chain unless it says otherwise.
UniProt Q9D4H8: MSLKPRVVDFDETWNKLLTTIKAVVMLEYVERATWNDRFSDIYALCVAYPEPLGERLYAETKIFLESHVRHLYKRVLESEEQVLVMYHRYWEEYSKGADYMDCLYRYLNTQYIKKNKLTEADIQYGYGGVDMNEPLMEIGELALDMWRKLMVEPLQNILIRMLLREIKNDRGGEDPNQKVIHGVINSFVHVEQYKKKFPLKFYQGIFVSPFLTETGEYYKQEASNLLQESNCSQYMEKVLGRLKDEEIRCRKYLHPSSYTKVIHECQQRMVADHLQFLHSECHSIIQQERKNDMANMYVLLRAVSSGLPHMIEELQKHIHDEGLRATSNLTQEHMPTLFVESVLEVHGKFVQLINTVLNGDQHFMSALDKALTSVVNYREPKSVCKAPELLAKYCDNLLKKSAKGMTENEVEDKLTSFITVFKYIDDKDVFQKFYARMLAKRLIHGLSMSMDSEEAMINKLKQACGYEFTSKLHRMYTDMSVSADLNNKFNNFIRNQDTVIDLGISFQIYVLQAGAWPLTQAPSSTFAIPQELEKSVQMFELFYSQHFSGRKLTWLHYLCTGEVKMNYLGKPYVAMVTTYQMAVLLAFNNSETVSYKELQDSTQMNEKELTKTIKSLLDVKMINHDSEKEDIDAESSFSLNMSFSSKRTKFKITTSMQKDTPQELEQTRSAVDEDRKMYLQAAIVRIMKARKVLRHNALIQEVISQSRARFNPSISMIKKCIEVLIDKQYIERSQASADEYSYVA
UniProt Q13619: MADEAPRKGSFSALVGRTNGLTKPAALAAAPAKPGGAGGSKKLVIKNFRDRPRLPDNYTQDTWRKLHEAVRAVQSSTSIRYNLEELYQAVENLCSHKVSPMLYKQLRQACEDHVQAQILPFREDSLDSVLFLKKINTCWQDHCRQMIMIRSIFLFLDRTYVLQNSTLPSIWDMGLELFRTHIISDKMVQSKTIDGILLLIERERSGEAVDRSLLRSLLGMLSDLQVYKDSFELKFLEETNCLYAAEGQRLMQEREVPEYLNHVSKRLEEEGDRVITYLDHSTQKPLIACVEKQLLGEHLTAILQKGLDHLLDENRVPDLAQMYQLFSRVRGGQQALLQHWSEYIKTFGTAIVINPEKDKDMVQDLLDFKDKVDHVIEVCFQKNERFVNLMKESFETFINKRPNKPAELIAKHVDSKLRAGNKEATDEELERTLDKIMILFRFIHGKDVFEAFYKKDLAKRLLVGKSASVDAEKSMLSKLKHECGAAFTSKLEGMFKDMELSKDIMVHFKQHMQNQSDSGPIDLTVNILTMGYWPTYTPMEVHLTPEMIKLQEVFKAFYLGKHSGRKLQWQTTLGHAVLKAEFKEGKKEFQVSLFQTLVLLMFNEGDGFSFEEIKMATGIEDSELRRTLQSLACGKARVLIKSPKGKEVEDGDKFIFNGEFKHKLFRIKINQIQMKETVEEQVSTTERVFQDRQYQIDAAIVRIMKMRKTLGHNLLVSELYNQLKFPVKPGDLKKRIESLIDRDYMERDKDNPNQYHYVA
UniProt P40337: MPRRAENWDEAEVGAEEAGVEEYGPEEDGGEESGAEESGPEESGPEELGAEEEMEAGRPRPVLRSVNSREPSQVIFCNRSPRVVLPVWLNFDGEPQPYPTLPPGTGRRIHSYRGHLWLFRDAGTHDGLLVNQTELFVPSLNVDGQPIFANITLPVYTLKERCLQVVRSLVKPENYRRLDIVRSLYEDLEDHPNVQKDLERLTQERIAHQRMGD

The target of experiment [2] is T2, Flag-UBXN7 (wild-type), expressed in HeLa cells (human) (UniProt O94888).
T2 sequence: T1 sequence
Description: condition: only cells treated with 1 μM MLN4924 for two hours; co-IP; as a1, Flag-UBXN7 immunoprecipitated from HeLa cells treated with 1 μM MLN4924 for two hours (alone or together with 10 μM MG132).

Experiment [3] concerns the target T2, Flag-UBXN7 (wild-type), expressed in HeLa cells (human). Description: co-IP; Flag-tagged bait immunoprecipitated with anti-Flag beads from transfected HeLa cell extracts (buffer A: 50 mM HEPES/KOH pH 7.2, 5 mM Mg(OAc)2, 70 mM KOAc, 0.2% Triton X-100, 10% glycerol, 0.2 mM EDTA); endogenous partners detected by western blot; cells treated or not with 10 μM MG132 and/or 1 μM MLN4924 for two hours. Background: A western blot detects proteins with antibodies after separation by electrophoresis.

In experiment [4] the target is T3, endogenous UBXN7 (human (endogenous in HeLa)) (UniProt O94888).
T3 sequence: T1 sequence
Description: co-IP; endogenous UBXN7 immunoprecipitated from HeLa cell extracts (buffer A) with anti-UBXN7 antibodies crosslinked to Protein A-agarose; cells treated or not with 10 μM MG132 for two hours.

In experiment [5] the target is T3, endogenous UBXN7 (human (endogenous in HeLa)). Nature of the experiment: co-IP; as a4, endogenous UBXN7 immunoprecipitated from HeLa cells not treated with MG132.
Experiment [6] deals with T2, Flag-UBXN7 (wild-type), expressed in HeLa cells (human). Nature of the experiment: co-IP; as a1, Flag-UBXN7 immunoprecipitated from HeLa cells not treated with MG132.
The target of experiment [7] is T4, Flag-UBXN7 S297H, expressed in HeLa cells (human) (UniProt O94888).
T4 sequence: T1 sequence with S297H
Nature of the experiment: co-IP; Flag-tagged bait immunoprecipitated with anti-Flag beads from transfected HeLa cell extracts (buffer A: 50 mM HEPES/KOH pH 7.2, 5 mM Mg(OAc)2, 70 mM KOAc, 0.2% Triton X-100, 10% glycerol, 0.2 mM EDTA); endogenous partners detected by western blot; cells treated or not with 10 μM MG132 and/or 1 μM MLN4924 for two hours.

In experiment [8] the target is T5, Flag-UBXN7 P459G, expressed in HeLa cells (human) (UniProt O94888).
T5 sequence: T1 sequence with P459G
The description is as above.

In experiment [9] the target is T6, Flag-UBXN7 S297A, expressed in HeLa cells (human) (UniProt O94888).
T6 sequence: T1 sequence with S297A
The description is as above.

Where a chain is given by its changes, count along the chain named. Results are given in words; binding and its absence hold for the method and conditions named. Binding seen in cells or lysates may run through a third protein. Some results given as binding are weak or reduced against the parent protein; the word gives no strength. For some assays here: Sequences can lack the tags named with a protein.

“endogenous CUL2 (A31N-ts20 mouse embryo fibroblasts) (from UniProt Q9D4H8 1-745)”: in experiment [1], the binding result was “binds”.
For the substance “endogenous CUL4A (HeLa) (from UniProt Q13619 1-759)”, the values for the binding result in experiment [2] and in experiment [3] were “no binding” and “binds”, respectively.
For “endogenous VHL (HeLa) (from UniProt P40337 1-213)”, the binding result is given as “binds” in [4], “no binding (condition: cells not treated with MG132)” in experiment [5], “no binding (condition: cells not treated with MG132)” in experiment [6] and “binds” in experiment [3].
“endogenous p97 (HeLa) (from UniProt P55072 1-806)”: the binding result is listed as “binds” in [7], “no binding” in experiment [8], “binds” in experiment [9] and “binds” in [3].
